# PubChem BioAssay AID662 (National Center for Advancing Translational Sciences (NCATS), 2007)
# About 1,800 (2.5%) of roughly 71,000 compounds were called active. Inconclusive means that the source gave no clear call. Such entries were picked first, then a sample of the others. Calls come from the whole dose curve; as a rule, active = well fitted activation curve with a large enough effect in the signal ratio, with a control signal flat (not every such curve was filed as active); inconclusive = small, poorly fitted or top-dose-only effect, or effect the other way, or a change in a side signal; inactive = flat fitted curve, though single readings scatter; the % refers to the signal ratio. Where the call is inconclusive, the potency comes from a doubtful curve fit.
# Test: Cell signaling CRE-BLA (Fsk stim); for activity change, negative = inhibition: % of control where 0% means no effect
# Conditions: CHO CRE-bla reporter (cAMP response element driving beta-lactamase), forskolin EC10, beta-lactamase ratio
# How it was run: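 Using CellSensor CRE-bla CHO cells in Opti-MEM with 0.5% dialyzed FBS, compounds were titrated with EC10 NKH 477 for 3 h at 37 °C. CCF4 ratio (460/530 nm) gave %Activity; AC50 derived.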
# [1] = activity change, negative = inhibition: at 38.2 µM (top of the series) unless noted
# Potency is the fitted concentration of half-maximal effect; tags give direction and shape of the fitted curve.
smiles,measurement,setting,value
O=C(OCC(=O)N1CCN(C(=O)c2ccco2)CC1)c1cc(-c2ccc(F)cc2)nc2ccccc12,Potency,[1],"inconclusive: 10 µM [rising, single point]"
O=C1CN(c2ccccc2F)C(=O)CN1c1ccccc1F,"activity change, negative = inhibition",[1],inconclusive: 20.4%
CCN1CCc2nc(NC(=O)Cc3ccc4c(c3)OCCO4)sc2C1,"activity change, negative = inhibition",[1],inconclusive: 14.7%
COc1cccc(NC(=O)Cc2c(O)c3ccccc3[nH]c2=O)c1,Potency,[1],inactive
C=CCOC(=O)C(C#N)c1nc2ccccc2nc1N1CCCC1 (stereo not given),Potency,[1],"inconclusive: 3.98 µM [rising, full curve]"
CCOC(=O)N1CCC(=C2c3ccc(Cl)cc3CCc3cccnc32)CC1,"activity change, negative = inhibition",[1],inconclusive: -20.4%
same,"activity change, negative = inhibition",at 38.2 µM (top of the series),inactive: -14.2%
CCCCn1ccnc1C(=O)c1ccc(S(=O)(=O)N(CCOC)CCOC)cc1,"activity change, negative = inhibition",[1],inconclusive: -2.45%
Cc1cc(O)c(-c2cc(C(=O)Nc3ccc(S(=O)(=O)N4CCOCC4)cc3)[nH]n2)cc1C,"activity change, negative = inhibition",[1],inconclusive: 3.72%
COc1cccc(CNc2ccc(S(=O)(=O)Nc3nccs3)cc2)c1O,"activity change, negative = inhibition",[1],inconclusive: 3.9%
O=C(CSc1nc2cccnc2n1Cc1ccccc1)NCc1ccco1,Potency,[1],inactive
Cc1cc(NC(=O)CSc2nccn2-c2ccc(F)cc2)no1,Potency,[1],inactive
O=C(c1ccco1)N1CCN(Cc2ccccc2C(F)(F)F)CC1,"activity change, negative = inhibition",[1],inconclusive: -6.65% [at 7.6 µM]
O=C(Cc1cn2ccsc2n1)Nc1nc2c(s1)CCCC2,"activity change, negative = inhibition",[1],inconclusive: 21.8%
N[C@H](CC(=O)O)C(=O)O,"activity change, negative = inhibition",[1],inconclusive: -10%
Cc1ccc(-n2c(C)c3c(C)nnc(C)c3c2C)cc1,Potency,[1],inactive
COc1cc(CCC(=O)Nc2cc(Cl)ccc2N2CCN(C)CC2)cc(OC)c1OC,"activity change, negative = inhibition",[1],inconclusive: 0.772%
FC(F)C(F)(F)C1=CC(c2cccs2)=NCCN1,"activity change, negative = inhibition",[1],inconclusive: 3.57%
CCC12CN(C(=O)c3ccc(OC)cc3)CC(CC)(CN(C(=O)c3ccc(OC)cc3)C1)C2=O,Potency,[1],inactive
COc1ccccc1NC(=O)CSc1nnc(Cc2cccn2C)n1CCc1ccccc1,"activity change, negative = inhibition",[1],inconclusive: 4.59%
COc1ccc(-c2nc3cnc(N4CCN(C)CC4)nc3n(C3CC3)c2=O)cc1,Potency,[1],"inconclusive: 10 µM [rising, partial curve]"
COc1ccc(NC2c3ncccc3C(=O)N2Cc2ccccc2)c(OC)c1 (stereo not given),Potency,[1],inactive
Cc1nc2ccccc2n1CCC(=O)Nc1cccc(F)c1,"activity change, negative = inhibition",[1],inconclusive: 7.88%
Cc1cc2c(c(N3CCOCC3)n1)C(=O)OC2,Potency,[1],inactive
CC(C)(O)c1cn(-c2nonc2N)nn1,Potency,[1],inactive
Cc1nc(/N=C\N(C)C)sc1C(=O)Nc1ccccc1,"activity change, negative = inhibition",[1],inconclusive: 4.65% [at 7.6 µM]
O=C(CN1CCN(c2ccc(F)cc2)CC1)Nc1cccc(C(F)(F)F)c1,"activity change, negative = inhibition",[1],inconclusive: 15.7%
O=C(C1CCN(S(=O)(=O)N2CCOCC2)CC1)N1CCc2ccccc21,"activity change, negative = inhibition",[1],inconclusive: -25.2%
CC1(C)O[C@H]2[C@@H](c3[nH]nc4c(=O)[nH]c(=O)[nH]c34)OC[C@H]2O1,"activity change, negative = inhibition",[1],inactive: -6.47% [at 7.6 µM]
Cn1c(=O)n(C)c2cc(NC(=O)CSc3nnc(-c4ccccc4O)n3-c3ccccc3)ccc21,"activity change, negative = inhibition",[1],inconclusive: 25.9%
O=c1c(-c2ccccc2)nc2cnc(N3CCNCC3)nc2n1-c1ccccc1,Potency,[1],"inconclusive: 2 µM [rising, full curve]"
Cc1ccc2cccc(SCC(=O)NCc3ccco3)c2n1,Potency,[1],inactive
Nn1c(SCC(=O)Nc2ccc3c(c2)OCO3)nnc1C1CC1,Potency,[1],"inconclusive: 12.6 µM [falling, single point]"
COc1cc2c(C#N)c(N3CCOCC3)nc(N)c2c(N)n1,Potency,[1],active: 10 µM
CCCC(=O)c1cc(O)c(O)cc1O,"activity change, negative = inhibition",[1],inconclusive: -25.2%
COc1ccc(-c2coc3cc(O)ccc3c2=O)cc1,"activity change, negative = inhibition",[1],inconclusive: 1.72%
Cc1cc(C)nc(SCCCn2c(=O)[nH]c3ccccc32)n1,"activity change, negative = inhibition",[1],inconclusive: 26.8%
COC(=O)c1[nH]c2cccc(OC)c2c1NC(=O)CN1CC2(C)CC1CC(C)(C)C2 (stereo not given),"activity change, negative = inhibition",[1],inconclusive: 7.74%
Cc1ccc(S(=O)(=O)NC(=O)OC23COCN2COC3)cc1,"activity change, negative = inhibition",[1],inactive: -2.26% [at 7.6 µM]
CCn1cc(C(=O)NCC(=O)OC)c2cc(OC)c(OC)cc2c1=O,Potency,[1],"inconclusive: 10 µM [rising, partial curve]"
Nc1ncnc2c1ncn2CCOc1ccccc1,Potency,[1],"inconclusive: 7.94 µM [rising, partial curve]"
CCCc1nc(N)nc2c1C(=O)CC(C)(C)C2,Potency,[1],"inconclusive: 12.6 µM [rising, partial curve]"
CCNc1ncc2nc(CCc3ccccc3)c(=O)n(C3CC3)c2n1,Potency,[1],active: 12.6 µM
Cc1ccc(NC(=O)c2c(-c3c(F)cccc3Cl)noc2C)cc1F,"activity change, negative = inhibition",[1],inconclusive: -12% [at 7.6 µM]
Cc1cccc2cc3c(N)c(C(=O)N4CCOCC4)sc3nc12,Potency,[1],"inconclusive: 12.6 µM [rising, single point]"
CCCCn1nnnc1SCC(=O)N1CCN(C(=O)c2ccco2)CC1,Potency,[1],"inconclusive: 0.0794 µM [falling, single point]"
COC(=O)c1ccc2c(c1)N(Cc1nc(-c3cccc(C)c3)oc1C)C(=O)C1CCCN21 (stereo not given),Potency,[1],active: 3.98 µM
O=C(COC(=O)c1cnccn1)c1ccc(OC(=O)c2ccccc2)cc1,"activity change, negative = inhibition",[1],inconclusive: -21.3% [at 7.6 µM]
CC(C)NC(=O)N1CC[C@@]2(CCCN(C(=O)c3ccco3)C2)C1,"activity change, negative = inhibition",[1],inconclusive: -4.82%
COCCN(CC(=O)NCc1ccccc1)C(=O)CCC(=O)Nc1nccs1,Potency,[1],inactive
Cc1ccc(CN2C(=O)CCC2C(=O)NC(C)C)cc1 (stereo not given),Potency,[1],inactive
Cc1cc(C(=O)NCc2ccc(S(N)(=O)=O)cc2)c(C)o1,"activity change, negative = inhibition",[1],inconclusive: 23.9%
Cc1cccc(Cn2c(N(C)Cc3ccccc3)nc3c2c(=O)[nH]c(=O)n3C)c1,Potency,[1],active: 12.6 µM
CCN(CC)C(=O)c1cc2sc3ccccc3c2s1,"activity change, negative = inhibition",[1],inconclusive: -16.2%
Cc1ccc(C)c(N2CCN(C(=O)CC3Sc4ccccc4NC3=O)CC2)c1 (stereo not given),Potency,[1],"inconclusive: 12.6 µM [rising, single point]"
